In PubChem BioAssay AID995 (National Center for Advancing Translational Sciences (NCATS), 2007):
Hit rate of the full screen: of about 72,000 compounds, about 710 (0.99%) were called active. The inconclusive results got no clear call from the source; some entries with a clear call stand among them for comparison. The call rests on the fitted dose curve; in most records, active means well fitted inhibition curve with a large enough effect; inconclusive means small, poorly fitted or top-dose-only effect; inactive means no such curve, though single readings can be large or run the other way. Potencies of inconclusive entries are left out as doubtful fits.
On the % scale 0 is the no-effect control and ±100 the full control effect; potency means the concentration at half of the fitted maximal effect; tags describe the fitted curve by direction and shape.

Assay: qHTS Assay for Inhibitors of the ERK Signaling Pathway using a Homogeneous Screening Assay; further: nearly all actives have a fitted effect of over 55% in size
Details: HEK293-V1b, vasopressin-stimulated pERK AlphaScreen; activity, negative = inhibition: at 57.5 µM (top of the series) unless noted
Outline: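 Phosphorylated ERK1/2 detected via AlphaScreen bead proximity in lysates of V1b-expressing HEK293 cells given 25 nM vasopressin for 5 min after 30 min compound exposure (37 °C). AC50 from Hill equation; basal DMSO 0%, vasopressin 100%.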
With `O=c1c(-c2cc(F)cc(F)c2)nc2cncnc2n1Cc1ccccc1Cl` the Potency was inconclusive [inhibitor, partial curve].
For `COc1cccc(-n2nnc3c(=O)n(Cc4ccccc4Cl)cnc32)c1`, the Potency was “inactive”.
In the case of `CCOc1ccc(CN2CCC(C(=O)N3CCN(c4ccccc4F)CC3)CC2)cc1OC`, the Potency was inconclusive [inhibitor, single point].
For `CC1CCC2C(=O)N3C(CCC(C)C3c3ccccc3Br)C(=O)N2C1c1ccc(C#CCN(C)C)cc1` (stereo not given), the activity, negative = inhibition was inactive: 17.9% [at 11.5 µM].
With `O=C(CCN1C(=O)c2ccccc2S1(=O)=O)NCc1ccco1` the Potency was inconclusive [inhibitor, partial curve].
For `CCCc1nc2ccccc2c(=O)n1/N=C/c1ccc(O)cc1`, the Potency was “inactive”.
With `CCN(CC)C(=O)CSc1nc2ccccc2c(=O)n1OC` the Potency was inconclusive [inhibitor, partial curve].
For `COc1ccc(S(=O)(=O)Cc2ccc(C(=O)N3CCN(c4cccc(C)c4)C(C)C3)o2)cc1` (stereo not given), the Potency was inconclusive [inhibitor, partial curve, poor fit].
For `CCCCn1c(=O)n(Cc2cccc(F)c2)c(=O)c2c1ncn2Cc1ccco1`, the Potency was inconclusive [inhibitor, single point].
For `CS(=O)(=O)c1ncc(Cl)c(C(=O)Nc2ccc(N3CCOCC3)cc2)n1`, the Potency was “inactive”.
With `CC(C)CCOc1ccc(C(=O)CCNC(C)C(=O)O)cc1` (stereo not given) the Potency was “inactive”.
For `O=c1oc2ccccc2c(O)c1CN1CCCCC1`, the Potency was inconclusive [inhibitor, single point].
For `Cc1onc(-c2ccccc2)c1C(=O)N1CCN(C/C=C/c2ccccc2)CC1`, the Potency was inconclusive [inhibitor, single point].
With `Cc1c(C(=O)OC(C)C)[nH]c2c1C(=O)CC(C)(C)C2` the Potency was inconclusive [inhibitor, single point].
With `COc1ccc(C(=O)N2CCN(C(=O)c3ccco3)CC2)cc1` the Potency was “inactive”.
In the case of `Cc1c(C(=O)NCCN2CCOCC2)oc2ccccc12`, the Potency was inconclusive [inhibitor, partial curve].
For `Nc1c(C(=O)OCC2CCCO2)c2nc3ccccc3nc2n1-c1ccc2c(c1)OCCO2` (stereo not given), the Potency was active: 20 µM.
With `Nc1cnn([C@@H]2O[C@H](CO)[C@@H](O)[C@H]2O)c(=O)n1` the Potency was “inactive”.
For `COCCNC(=O)c1sc2nc(-c3ccccc3)cn2c1C`, the Potency was “inactive”.
With `CCc1nc(N2CCN(C(=O)c3ccco3)CC2)c2oc3ccccc3c2n1` the Potency was inconclusive [inhibitor, partial curve].
